One experiment relates to HSkMC. The experiment can be described thus: cytotoxicity call (relative viability < 0.9). The following applies: 10 µM.
The subject of the next experiment is HepG2. The experiment can be described thus: cytotoxicity call (relative viability < 0.9). Conditions: 10 µM.
The test system of another experiment is S. aureus RN4220. The experiment can be described thus: growth inhibition call (relative growth <= 0.2). The following applies: 50 µM.

Structures are written as SMILES. This is one part of the list.

Consider `COc1ccc(NC(=O)N(C)C[C@@H]2OCCCC[C@@H](C)Oc3ccc(NC(=O)Nc4c(C)noc4C)cc3C(=O)N([C@@H](C)CO)C[C@H]2C)cc1`, for which the cytotoxicity call with HSkMC and in the experiment with HepG2 was “inactive” throughout. Moreover, in the experiment on S. aureus RN4220, the growth inhibition call is “inactive”.

Consider `Cc1ccc(S(=O)(=O)Nc2ccc3c(c2)C(=O)N([C@@H](C)CO)C[C@H](C)[C@@H](CN(C)C(=O)Nc2ccc(C(F)(F)F)cc2)OCCCC[C@@H](C)O3)cc1`, for which, in the experiment on HSkMC, the cytotoxicity call is “inactive”. Also, the cytotoxicity call with HepG2 was “active”. For the same compound, the growth inhibition call in the experiment with S. aureus RN4220 is “inactive”.

On to `C[C@@H]1CN([C@H](C)CO)S(=O)(=O)c2ccc(-c3cncnc3)cc2O[C@@H]1CN(C)C(=O)Cc1ccccc1`, for which the cytotoxicity call in the experiment with HSkMC and with HepG2 was “inactive” throughout. The growth inhibition call in the experiment with S. aureus RN4220 was “inactive”.

Consider `C[C@@H]1CN([C@@H](C)CO)C(=O)c2cc(NC(=O)c3ccccc3)ccc2O[C@@H](C)CCCCO[C@@H]1CN(C)C(=O)Nc1cccc2ccccc12`, for which the cytotoxicity call in the experiment with HSkMC and with HepG2 was “inactive” each time. In addition, the growth inhibition call with S. aureus RN4220 is “inactive”.

On to `COc1ccc(S(=O)(=O)N[C@@H]2CC[C@@H](CCNC(=O)CN3CCOCC3)O[C@H]2CO)cc1`, for which the cytotoxicity call in the experiment on HSkMC and in the experiment on HepG2 was “inactive” in each case. For the same compound, the growth inhibition call in the experiment on S. aureus RN4220 was “inactive”.

For `CC(C)C#Cc1ccc2c(c1)O[C@H](CN(C)C(=O)c1cccc(F)c1)[C@H](C)CN([C@H](C)CO)S2(=O)=O`, the cytotoxicity call in the experiment with HSkMC and in the experiment on HepG2 was “inactive” throughout. Moreover, the growth inhibition call with S. aureus RN4220 was “inactive”.

`C[C@@H]1CN([C@@H](C)CO)C(=O)c2cccc(NS(=O)(=O)c3ccc(Cl)cc3)c2O[C@@H]1CN(C)Cc1ccc(C(F)(F)F)cc1`: the cytotoxicity call with HSkMC is “inactive”. The cytotoxicity call in the experiment on HepG2 was “active”. In addition, in the experiment with S. aureus RN4220, the growth inhibition call was “inactive”.

Take `O=[N+]([O-])c1ccc(Oc2ccc(-c3ccccc3)cc2)cc1`: the cytotoxicity call in the experiment with HSkMC is “inactive”. In the experiment with HepG2, the cytotoxicity call is “active”. Moreover, the growth inhibition call with S. aureus RN4220 was “inactive”.

With `COc1ccccc1C#Cc1cnc2c(c1)C(=O)N([C@@H](C)CO)C[C@H](C)[C@@H](CN(C)C(=O)CN(C)C)O2`, the cytotoxicity call in the experiment on HSkMC and in the experiment with HepG2 was “inactive” each time. In the experiment with S. aureus RN4220, the growth inhibition call is “inactive”.

Turning to `C[C@@H]1CCCCO[C@@H](CN(C)C(=O)c2ccccc2)[C@H](C)CN([C@H](C)CO)C(=O)c2cc(NS(=O)(=O)c3ccc(F)cc3)ccc2O1`, the cytotoxicity call in the experiment on HSkMC and in the experiment on HepG2 was “inactive” in each case. In the experiment with S. aureus RN4220, the growth inhibition call is “inactive”.

Regarding `CS(=O)(=O)Nc1ccc2oc3c(OC(F)F)ccc(C(=O)Nc4c(Cl)cncc4Cl)c3c2c1`, the cytotoxicity call with HSkMC and with HepG2 was “inactive” throughout. Moreover, the growth inhibition call with S. aureus RN4220 was “inactive”.

On to `C[C@@H]1CN([C@@H](C)CO)C(=O)Cc2cc(NC(=O)Nc3ccccc3)ccc2O[C@@H]1CN(C)S(C)(=O)=O`, for which the cytotoxicity call in the experiment on HSkMC and in the experiment on HepG2 was “inactive” each time. In the experiment with S. aureus RN4220, the growth inhibition call was “inactive”.

In the case of `COc1ccccc1CNC(=O)C[C@H]1C[C@@H]2c3cc(NC(=O)c4cccnc4)ccc3O[C@@H]2[C@H](CO)O1`, the cytotoxicity call in the experiment with HSkMC and in the experiment with HepG2 was “inactive” each time. In addition, the growth inhibition call with S. aureus RN4220 is “inactive”.

Take `COc1ccc(NC(=O)Nc2ccc3c(c2)C(=O)N([C@@H](C)CO)C[C@@H](C)[C@@H](CN(C)C(=O)Nc2ccc(OC)cc2)OCCCC[C@@H](C)O3)cc1`: the cytotoxicity call in the experiment with HSkMC and in the experiment with HepG2 was “inactive” in each case. Also, the growth inhibition call in the experiment with S. aureus RN4220 was “inactive”.

As for `C=C[C@]1(C)C[C@@H](OC(=O)CS[C@@H]2C[C@H]3CC[C@@H](C2)N3C)[C@]2(C)[C@H](C)CC[C@]3(CCC(=O)[C@H]32)[C@@H](C)[C@@H]1O`, the cytotoxicity call in the experiment with HSkMC and in the experiment with HepG2 was “inactive” each time. For the same compound, in the experiment on S. aureus RN4220, the growth inhibition call is “active”.

In the case of `Cc1ccc(S(=O)(=O)Nc2ccc3c(c2)C(=O)N([C@@H](C)CO)C[C@H](C)[C@H](CN(C)Cc2ccc(Oc4ccccc4)cc2)O3)cc1`, the cytotoxicity call in the experiment with HSkMC and with HepG2 was “inactive” each time. For the same compound, in the experiment with S. aureus RN4220, the growth inhibition call was “inactive”.

Take `C[C@@H]1CN([C@@H](C)CO)C(=O)c2cc(NC(=O)c3ccccc3)ccc2O[C@@H](C)CCCCO[C@@H]1CN(C)C(=O)Cc1ccccc1`: the cytotoxicity call in the experiment on HSkMC and in the experiment with HepG2 was “inactive” each time. The growth inhibition call in the experiment on S. aureus RN4220 was “inactive”.

As for `Cc1noc(C)c1S(=O)(=O)Nc1ccc2c(c1)C(=O)N([C@H](C)CO)C[C@@H](C)[C@H](CN(C)Cc1ccccc1)O2`, the cytotoxicity call in the experiment on HSkMC and with HepG2 was “inactive” throughout. In addition, in the experiment with S. aureus RN4220, the growth inhibition call was “inactive”.

Regarding `C[C@H](CO)N1C[C@H](C)[C@@H](CN(C)Cc2ccc(Cl)c(Cl)c2)Oc2c(NC(=O)Nc3cccc4ccccc34)cccc2C1=O`, the cytotoxicity call with HSkMC was “active”. In the experiment on HepG2, the cytotoxicity call is “inactive”. Also, in the experiment with S. aureus RN4220, the growth inhibition call was “inactive”.

With `C[C@@H]1CN([C@@H](C)CO)C(=O)c2cccc(NC(=O)C3CC3)c2O[C@H]1CN(C)S(=O)(=O)c1ccc(F)cc1`, the cytotoxicity call in the experiment on HSkMC and in the experiment with HepG2 was “inactive” each time. Further, in the experiment with S. aureus RN4220, the growth inhibition call is “inactive”.

In the case of `COc1ccc(NC(=O)Nc2cccc3c2O[C@H](CN(C)Cc2ccc(Oc4ccccc4)cc2)[C@@H](C)CN([C@H](C)CO)C3=O)cc1`, the cytotoxicity call in the experiment with HSkMC and in the experiment on HepG2 was “inactive” in each case. In addition, the growth inhibition call with S. aureus RN4220 is “inactive”.

Consider `C[C@@H]1CN([C@H](C)CO)S(=O)(=O)c2ccc(/C=C/c3ccccc3)cc2O[C@H]1CN(C)C(=O)CN1CCOCC1`, for which the cytotoxicity call with HSkMC and in the experiment on HepG2 was “inactive” each time. The growth inhibition call in the experiment on S. aureus RN4220 is “inactive”.

Take `C[C@H](CO)N1C[C@H](C)[C@@H](CN(C)Cc2ccccc2C(F)(F)F)OCc2ccccc2-c2ccccc2C1=O`: the cytotoxicity call in the experiment with HSkMC and in the experiment on HepG2 was “inactive” throughout. Besides, the growth inhibition call with S. aureus RN4220 was “active”.

As to `C[C@@H]1CN([C@H](C)CO)C(=O)c2cccc(NC(=O)c3ccc(-c4nccs4)cc3)c2O[C@@H]1CN(C)S(C)(=O)=O`, the cytotoxicity call in the experiment on HSkMC and in the experiment on HepG2 was “inactive” each time. In addition, in the experiment on S. aureus RN4220, the growth inhibition call is “inactive”.

Take `CCOC(=O)OC[C@@H]1[C@@H]2NC(=O)N(C)[C@@]1(COC(=O)NCCCCCC(=O)NO)Oc1ccccc12`: the cytotoxicity call in the experiment on HSkMC (human skeletal muscle cells) and in the experiment with HepG2 was “inactive” in each case. The growth inhibition call in the experiment with S. aureus RN4220 was “inactive”.

For `C[C@@H]1CN([C@@H](C)CO)C(=O)c2cc(NC(=O)NC3CCCCC3)ccc2O[C@@H](C)CCCCO[C@@H]1CN(C)C(=O)NC1CCCCC1`, the cytotoxicity call in the experiment with HSkMC and with HepG2 was “inactive” throughout. Besides, the growth inhibition call with S. aureus RN4220 was “inactive”.
